Reference: PubChem BioAssay AID504937 (National Center for Advancing Translational Sciences (NCATS), 2011)
About 20 (0.006%) of roughly 340,000 compounds were called active. The inconclusive results got no clear call from the source; some entries with a clear call stand among them for comparison. Calls come from the whole dose curve; as a rule, active = well fitted inhibition curve with a large enough effect; inconclusive = small, poorly fitted or top-dose-only effect; inactive = no such curve, though single readings can be large or run the other way. A potency beside an inconclusive call is a rough fit, not a confirmed value.
Potency is the fitted concentration of half-maximal effect; tags give direction and shape of the fitted curve.

The compounds below were run against Sphingomyelin phosphodiesterase (Homo sapiens) (UniProt P17405) (assay: Inhibitors of Secretory Acid Sphingomyelinase (S-ASM): qHTS). Settings: placental ASM, HMU-PC fluorogenic substrate (series up to 57.5 µM), 60 min; activity change, negative = inhibition: at the top concentration.
Chain of UniProt P17405 (P17405 whole entry, looked up): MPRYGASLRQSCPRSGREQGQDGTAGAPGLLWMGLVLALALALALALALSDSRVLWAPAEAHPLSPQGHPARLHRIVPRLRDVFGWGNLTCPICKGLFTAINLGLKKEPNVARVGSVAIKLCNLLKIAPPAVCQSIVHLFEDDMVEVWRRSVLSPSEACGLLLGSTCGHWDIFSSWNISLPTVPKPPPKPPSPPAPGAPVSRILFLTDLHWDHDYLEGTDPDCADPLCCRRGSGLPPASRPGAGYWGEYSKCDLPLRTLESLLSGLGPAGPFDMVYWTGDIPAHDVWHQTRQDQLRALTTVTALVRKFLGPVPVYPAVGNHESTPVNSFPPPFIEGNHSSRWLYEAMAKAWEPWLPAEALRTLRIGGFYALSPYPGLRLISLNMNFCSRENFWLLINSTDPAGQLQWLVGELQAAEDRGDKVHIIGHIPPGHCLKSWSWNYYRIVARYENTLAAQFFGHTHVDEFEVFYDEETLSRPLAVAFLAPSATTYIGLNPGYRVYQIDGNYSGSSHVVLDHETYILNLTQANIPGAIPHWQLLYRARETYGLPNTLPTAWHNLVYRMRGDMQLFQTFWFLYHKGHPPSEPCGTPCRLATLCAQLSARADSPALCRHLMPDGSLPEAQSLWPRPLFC
Outline: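 Fluorogenic HMU-PC substrate (9 uM final) is turned over by placental ASM in 60 min at 37 C after a 10 min compound preincubation. Reaction ended by alkaline stop (pH 10), with fluorescence read at 386/447 nm.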
For CCC1CSC(Nc2ccc(C(=O)/C=C/c3ccc(Br)cc3)cc2)=N1 (stereo not drawn), the Potency was inconclusive: 200 µM [inhibitor, partial curve, poor fit].
CCN(CC)C(=O)COC(=O)c1ccc(C)c(NC(=O)c2ccco2)c1 was tested, and the “activity change, negative = inhibition” value was inactive: -0.407%.
With O=C1[C@@H](Oc2ccccc2)[C@@H](c2ccncc2)N1c1ccccc1 the “activity change, negative = inhibition” value was inactive: 2.65%.
CCOc1ccccc1N1CCN(C(=O)c2ccc(-c3ccc(OC(C)=O)cc3)cc2)CC1 was tested, and the Potency was inconclusive: 112 µM [inhibitor, partial curve, poor fit].
CC(=O)[C@@]1(O)[C@H](C)CC2C3CC=C4CC(OP(=O)(O)O)CC[C@]4(C)C3CC[C@@]21C (stereo partly drawn) was tested, and the Potency was inconclusive: 126 µM [inhibitor, partial curve, poor fit].
With CC(C)CNc1nnnc2c1sc1nc(N3CCOCC3)c3c(c12)CC(C)(C)SC3 the Potency was inconclusive: 631 µM [inhibitor, partial curve, poor fit].
CCOc1ccc(CCNC(=O)COC(=O)CCc2cc(OC)c(OC)c(OC)c2)cc1OCC was tested, and the “activity change, negative = inhibition” value was inactive: 1.05%.
COc1ccc2nc(NC(=O)C3CSC4(C)CCC(=O)N34)sc2c1 (stereo not drawn) was tested, and the “activity change, negative = inhibition” value was inactive: -1.72%.
O=S(=O)(c1cccc(-c2nnc(-c3ccc(Br)cc3)o2)c1)N1CCCCCC1 was tested, and the “activity change, negative = inhibition” value was inactive: -0.497%.
In the case of Cc1ccc(CSc2nc3ccccc3cc2C=O)cc1, the Potency is reported as inconclusive: 100 µM [inhibitor, partial curve, poor fit].
COc1ccc(OC)c(C2=NS(=O)(=O)N(C)C(C(=O)Nc3cccc(C(C)=O)c3)=C2)c1 was tested, and the Potency was inconclusive: 355 µM [inhibitor, partial curve, poor fit].
For COC(=O)N/N=C/c1cn(CCOc2ccc(OC)cc2)c2ccccc12, the Potency was inconclusive: 112 µM [inhibitor, partial curve, poor fit].
With CC(C)CNc1ncnc2c1sc1nc(N3CCOCC3)c3c(c12)CC(C)(C)OC3 the “activity change, negative = inhibition” value was inactive: -0.279%.
With CN(C)N=C1c2cc(S(=O)(=O)N(C)C)ccc2-c2ccc(S(=O)(=O)N(C)C)cc21 the Potency was inconclusive: 251 µM [inhibitor, partial curve, poor fit].
For COc1cc(-c2nc3ccc4ccccc4c3c3c2CCC3)cc(OC)c1O, the Potency was inconclusive: 89.1 µM [inhibitor, single point].
For CCCCCCCCC(=O)N/N=C/c1cccc(Br)c1, the Potency was inconclusive: 79.4 µM [inhibitor, partial curve, poor fit].
In the case of CC(C)COc1ccc(-c2nn(-c3ccccc3)cc2C(=O)Nc2nccs2)cc1, the Potency is reported as inconclusive: 100 µM [inhibitor, partial curve, poor fit].
For CC(=O)c1ccc(N=Nc2c(C)[nH]n(-c3ccccc3)c2=O)cc1, the Potency was inconclusive: 316 µM [inhibitor, partial curve, poor fit].
COc1ccc(C(=O)Oc2ccc(/C=N/Nc3ccc(Cl)c(C(=O)O)c3)cc2OC)cc1 was tested, and the Potency was inconclusive: 158 µM [inhibitor, partial curve, poor fit].
For Cc1ccccc1NCC(=O)N/N=C/c1c(C)c(C(=O)c2ccc(Cl)cc2)n2ccccc12, the Potency was inconclusive: 251 µM [inhibitor, partial curve, poor fit].
For COc1cc(/C=C2\SC(=S)N(NC(=O)c3ccncc3)C2=O)ccc1O, the Potency was inconclusive: 112 µM [inhibitor, partial curve, poor fit].
With CCCn1nnc(NC(=O)c2ccccc2Br)n1 the “activity change, negative = inhibition” value was inactive: 2%.
Nc1ccc(N=Nc2ccccc2)c(N)n1 was tested, and the “activity change, negative = inhibition” value was inactive: 0.963%.
In the case of CCc1ccc(Nc2nnc(SCC(=O)Nc3cccc(S(=O)(=O)NC4=NCCCCC4)c3)s2)cc1, the Potency is reported as inconclusive: 100 µM [inhibitor, partial curve, poor fit].
For CCOc1ccc(NS(=O)(=O)c2cc(NC(=O)c3cccc(C)c3)ccc2Cl)cc1, the Potency was inconclusive: 282 µM [inhibitor, partial curve, poor fit].
CC(C)(C)c1ccc(-c2cc(C(=O)NNC(=O)Nc3ccccc3)c3ccccc3n2)cc1 was tested, and the Potency was inconclusive: 282 µM [inhibitor, partial curve, poor fit].
O=S(=O)(Nc1ccc(F)cc1Cl)c1ccc(-c2cnc(C3CC3)o2)cc1 was tested, and the “activity change, negative = inhibition” value was inactive: -18.8%.
O=C(CCC1N=C2c3ccccc3N=C(SCc3ccc(Cl)cc3)N2C1=O)NCc1ccco1 (stereo not drawn) was tested, and the “activity change, negative = inhibition” value was inactive: 1.65%.
In the case of COc1ccc(-c2oc(NC(=O)CCl)c(C#N)c2-c2ccc(OC)cc2)cc1, the Potency is reported as inconclusive: 70.8 µM [inhibitor, partial curve].
With CN(C)CCNc1ncnc2c1sc1nc(N3CCOCC3)c3c(c12)CC(C)(C)SC3 the Potency was inconclusive: 355 µM [inhibitor, partial curve, poor fit].
CN(C)CCCN1C(=O)c2cccc3c(Br)ccc(c23)C1=O was tested, and the “activity change, negative = inhibition” value was inactive: 0.558%.
For O=[N+]([O-])c1cc(C(F)(F)F)ccc1NCCNC(=S)Nc1ccc(Cl)cc1, the Potency was inconclusive: 89.1 µM [inhibitor, partial curve].
For N#Cc1c2c(c(Nc3ccccc3)n3c1nc1ccccc13)CCC2, the “activity change, negative = inhibition” value was inactive: 34.6%.
For Cc1ccc(N2NC(=O)/C(=C/c3ccc(-c4ccc(Cl)c(C(=O)O)c4)o3)C2=O)cc1, the Potency was inconclusive: 100 µM [inhibitor, partial curve, poor fit].
For CCSc1nsc(NC(=O)Nc2ccccc2F)n1, the Potency was inconclusive: 112 µM [inhibitor, partial curve, poor fit].
In the case of O=C1C(Cl)=C(N2CCCCCC2)C(=O)N1c1ccc(Br)cc1, the Potency is reported as inconclusive: 355 µM [inhibitor, partial curve, poor fit].
In the case of Cc1ccc(S(=O)(=O)N/N=C\c2cn(-c3ccccc3)nc2-c2ccccc2)cc1, the Potency is reported as inconclusive: 282 µM [inhibitor, partial curve, poor fit].
Cc1oc2cc(O)cc(C)c2c(=O)c1-c1cnn(-c2ccccc2)c1 was tested, and the Potency was inconclusive: 224 µM [inhibitor, partial curve, poor fit].
For Cc1cc(C)cc(NC(=O)c2cc(C)n(Cc3cccs3)c2C)c1, the “activity change, negative = inhibition” value was inactive: 1.82%.
With COc1ccccc1NC(=O)CC1S/C(=N/N=C2\CCCc3ccccc32)NC1=O (stereo not drawn) the Potency was inconclusive: 501 µM [inhibitor, partial curve, poor fit].
With Cc1ccc(O)c([C@H](CCN(C(C)C)C(C)C)c2ccccc2)c1 the Potency was “inactive”.
O=C(NN1C(=O)/C(=C/c2ccc(O)c([N+](=O)[O-])c2)SC1=S)c1ccccc1Cl was tested, and the Potency was inconclusive: 44.7 µM [inhibitor, partial curve, poor fit].
For CCCCOc1ccc(CC(=O)NO)cc1, the Potency was inconclusive: 7.08 µM [inhibitor, partial curve, poor fit].
For O=S(=O)(O)c1cc(Cl)cc(N=Nc2ccc(O)cc2O)c1O, the Potency was inconclusive: 100 µM [inhibitor, single point].
Nc1cccc(Nc2nc(OC(C(F)(F)F)C(F)(F)F)nc(OC(C(F)(F)F)C(F)(F)F)n2)c1 was tested, and the Potency was inconclusive: 89.1 µM [inhibitor, single point].
For CC(C)=CCCC1(C)C=Cc2c(c(C)cc3c2[nH]c2cc(O)ccc23)O1 (stereo not drawn), the Potency was inconclusive: 141 µM [inhibitor, partial curve, poor fit].
Cc1cccc(Oc2sc(C(=O)c3ccccc3)c(N)c2C#N)c1C was tested, and the Potency was inconclusive: 112 µM [inhibitor, partial curve, poor fit].
In the case of COc1cc(Br)cc(-c2nc3c(c(=O)[nH]c(=O)n3Cc3ccccc3)n2C)c1O, the Potency is reported as inconclusive: 44.7 µM [inhibitor, partial curve, poor fit].
With CCS(=O)(=O)Nc1ccc(-c2nnc(SCC(=O)c3cccc(OC)c3)o2)cc1 the Potency was inconclusive: 79.4 µM [inhibitor, single point].
O=C(CNS(=O)(=O)c1ccc(Br)s1)NCc1ccc(F)cc1 was tested, and the Potency was inconclusive: 282 µM [inhibitor, partial curve, poor fit].
With COc1cccc(N2CC(NS(=O)(=O)c3ccc4ccccc4c3)CC2=O)c1 (stereo not drawn) the Potency was inconclusive: 355 µM [inhibitor, partial curve, poor fit].
Oc1ccccc1C1SC(c2ccccc2O)SC(c2ccccc2O)S1 (stereo not drawn) was tested, and the “activity change, negative = inhibition” value was inactive: -13.1%.
CN1C(C(=O)N2CCc3ccccc3C2)=CC(c2ccc(F)cc2)=NS1(=O)=O was tested, and the “activity change, negative = inhibition” value was inactive: -0.72%.
In the case of O=C(NC1CCCCC1)C(c1ccco1)N(C(=O)c1csnn1)c1ccc(Cl)cc1 (stereo not drawn), the Potency is reported as inconclusive: 447 µM [inhibitor, partial curve, poor fit].
With COc1ccc(N(CC(=O)NCCSc2ccccc2)S(C)(=O)=O)cc1 the “activity change, negative = inhibition” value was inactive: 1.51%.
In the case of CCC(=O)CCC(=O)c1ccc2ccccc2c1, the “activity change, negative = inhibition” value is reported as inactive: 5.99%.
CCOC(=O)c1cc2cc(-c3c(C(=O)OCC)oc4cc(O)cc(O)c4c3=O)ccc2o1 was tested, and the Potency was inconclusive: 89.1 µM [inhibitor, partial curve].
CCc1c(C)sc(NC(=O)c2cc(CC(C)C)on2)c1C#N was tested, and the “activity change, negative = inhibition” value was inactive: -7.14%.
Cc1c(CN2CCC(CO)(Cc3cccc(C(F)(F)F)c3)CC2)c2ccccc2n1C was tested, and the Potency was inconclusive: 631 µM [inhibitor, partial curve, poor fit].
In the case of CCCCCCCCCCOC(=O)Cn1c(COc2cccc(OC)c2)[n+](C)c2ccccc21, the Potency is reported as inconclusive: 44.7 µM [inhibitor, partial curve].
COc1ccc(C2=NOC(Cn3c(Cc4ccc(Cl)cc4)nc4c3c(=O)n(C)c(=O)n4C)C2)cc1 (stereo not drawn) was tested, and the Potency was inconclusive: 100 µM [inhibitor, partial curve].
With O=C(/C=C/NNC(=O)c1ccccc1)c1ccc(Br)cc1 the Potency was inconclusive: 251 µM [inhibitor, partial curve, poor fit].
For C=CCn1c(O)c(N=Nc2ccccc2O)c2ccccc21, the Potency was inconclusive: 89.1 µM [inhibitor, partial curve, poor fit].
